Source: PubChem BioAssay AID1479 (National Center for Advancing Translational Sciences (NCATS), 2009)
The whole screen tested about 280,000 compounds, of which about 820 (0.29%) were called active. This list was built around the results that the source calls inconclusive (neither active nor inactive); the mix of calls is not that of the screen. The call rests on the fitted dose curve; in most records, active means well fitted curve in either direction with a large enough effect; inconclusive means small, poorly fitted or top-dose-only effect; inactive means flat fitted curve, though single readings scatter. No potency is given beside an inconclusive call; the fits are too rough.

Assay: Total Fluorescence Counterscreen for Inhibitors of the Interaction of Thyroid Hormone Receptor and Steroid Receptor Coregulator 2
Conditions: TRb/SRC2 Texas Red total fluorescence interference; series mostly up to 106 µM; fluorescence change, negative = quenching: at the top concentration
Procedure, shortened: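 Flags fluorescent or light-absorbing compounds by total fluorescence, S + 2P, at 555 nm excitation and 632 nm emission. Mixture: 20 nM Texas Red SRC2 peptide, 0.6 uM human TRb LBD, 1 uM T3, 5% DMSO; compound exposure 5 h at ambient temperature.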
On the % scale 0 is the no-effect control and ±100 the full control effect; potency means the concentration at half of the fitted maximal effect; tags describe the fitted curve by direction and shape or compound fluorescence and quenching.

Question: Which Potency does the source give for `COc1ccc(NC(=O)CSc2cc(-c3ccccc3)nc(C)n2)cc1` here?
Answer: active: 8.91 µM [quencher]

Question: With `CCOc1ccc(-c2csc(/C(C#N)=C/c3ccc(Br)cc3)n2)cc1` as the compound, how does the Potency read?
Answer: inconclusive [quencher, full curve]

Question: Which Potency does the source give for `COc1ccc(Br)cc1CNc1ccc(O)cc1` here?
Answer: inconclusive [fluorescent, partial curve]

Question: For `COc1ccc(OC)c(-c2c3cc(O)c(=O)cc-3oc3cc(O)c(O)cc23)c1`, which Potency is on record?
Answer: active: 44.7 µM [fluorescent]

Question: Which “fluorescence change, negative = quenching” value (“fluorescence change” below) does the source give for `COc1cc(O)c(C(=O)/C=C/c2ccc(O)c(OC)c2)c(OC)c1` here?
Answer: inactive: -1.84%

Question: With `CCOC(=O)C1CCN(C(=O)CN2c3ccc(CC)cc3-c3ccccc3S2(=O)=O)CC1` as the compound, how does the Potency read?
Answer: inconclusive [falling, full curve, poor fit]

Question: With `CN(C)CCOC(=O)CC12CC3CC(C1)CC(CC(=O)OCCN(C)C)(C3)C2` as the compound, how does the Potency read?
Answer: inconclusive [rising, single point]

Question: For `Cc1cc(C)nc(-n2nc(C)c3c2N(C)C(=O)CC3c2ccc(Cl)cc2)n1` (stereo not drawn), which Potency is on record?
Answer: inconclusive [falling, full curve, poor fit]

Question: With `CCOC(=O)CSc1nc2sc3c(c2c(=O)n1-c1ccccc1)CC(C(C)C)OC3` (stereo not drawn) as the compound, how does the Potency read?
Answer: inconclusive [falling, full curve, poor fit]

Question: With `Cc1ccc(-c2nc(CS(=O)CC(=O)N3CCN(c4cccc(Cl)c4)CC3)c(C)o2)cc1` (stereo not drawn) as the compound, how does the Potency read?
Answer: inconclusive [falling, full curve, poor fit]

Question: For `Cc1ccc2cccc(NC(=O)COc3ccccc3Cl)c2n1`, which Potency is on record?
Answer: active: 15.8 µM [quencher]

Question: Which Potency does the source give for `O=c1c(Cl)c(Cl)cnn1-c1ccccc1` here?
Answer: inconclusive [falling, full curve, poor fit]

Question: With `O=C(CSc1nc2ccsc2c(=O)n1Cc1ccccc1Cl)NCc1ccc(F)cc1` as the compound, how does the Potency read?
Answer: inconclusive [quencher]

Question: For `CCOc1ccccc1NC(=O)c1c(NCc2cccs2)sc2c1CCC(C)C2` (stereo not drawn), which “fluorescence change” value is on record?
Answer: inactive: -1.03%

Question: Which Potency does the source give for `CN(C)/C=C1\SC(=S)N(c2ccc(Br)cc2)C1=O` here?
Answer: active: 31.6 µM [fluorescent]

Question: Which “fluorescence change” value does the source give for `Cc1ccc(/C=C/c2onc(C)c2S(=O)(=O)N2CCC(C(=O)N3CCN(c4ccccc4F)CC3)CC2)cc1` here?
Answer: inactive: -2.88%

Question: With `O=C(Cn1c(=O)n(Cc2ccc3c(c2)OCO3)c(=O)c2oc3ccccc3c21)Nc1ccccc1F` as the compound, how does the “fluorescence change” value read?
Answer: inactive: 0.227%

Question: Which Potency does the source give for `Cc1ccc(CNc2ncnc3onc(-c4ccc(F)cc4)c23)cc1` here?
Answer: active: 0.0891 µM [quencher]

Question: For `CC(CNC(=O)CN1C(=O)c2cccnc2Oc2ccc(Cl)cc21)c1ccccc1` (stereo not drawn), which “fluorescence change” value is on record?
Answer: inactive: 8.84%

Question: With `O=c1cc(-c2ccccc2Cl)oc2c([N+](=O)[O-])ccc(O)c12` as the compound, how does the Potency read?
Answer: inconclusive [falling, full curve, poor fit]

Question: With `COc1ccc(NC(=O)c2c(C)oc3ccc(O)c(CN4CCCCCC4)c23)cc1Cl` as the compound, how does the Potency read?
Answer: active: 794 µM [quencher]

Question: Which Potency does the source give for `COc1ccc(-c2noc(N3CCC(C(=O)N(C)c4cc(Cl)ccc4OC)CC3)n2)cc1` here?
Answer: inconclusive [quencher, partial curve]

Question: With `NS(=O)(=O)c1ccc(N/N=C/c2ccc(O)c(O)c2O)c([N+](=O)[O-])c1` as the compound, how does the Potency read?
Answer: inconclusive [quencher, partial curve]

Question: Which Potency does the source give for `CCN(CC)c1ccc(NC(=O)Nc2ccccc2C(F)(F)F)cc1` here?
Answer: inconclusive [fluorescent, partial curve]

Question: Which Potency does the source give for `COc1cc(C(=O)NCCc2csc3nc(-c4ccccc4C)nn23)cc(OC)c1OC` here?
Answer: inconclusive [falling, partial curve, poor fit]

Question: For `CC(C)c1ccc(NC(=O)CC2Oc3ccccc3NC2=O)cc1` (stereo not drawn), which Potency is on record?
Answer: inconclusive [quencher, full curve]

Question: Which Potency does the source give for `COc1cc2nc(/C=C/c3ccc(N(C)C)cc3)sc2cc1SC` here?
Answer: inconclusive [quencher, full curve]

Question: With `CN(/N=C/C=C/c1ccccc1)c1cc(=O)n(C)c(=O)[nH]1` as the compound, how does the Potency read?
Answer: inconclusive [falling, partial curve, poor fit]

Question: Which “fluorescence change” value does the source give for `CCc1cc(=O)[nH]c(SCc2nc(-c3cccc(Cl)c3)no2)n1` here?
Answer: inactive: 1.49%

Question: With `Cc1ccc(NC(=S)NNC(=O)c2ccc(N3CCOCC3)c([N+](=O)[O-])c2)cc1Cl` as the compound, how does the “fluorescence change” value read?
Answer: inactive: -0.78%

Question: For `CCN(CC)S(=O)(=O)c1cccc(N=NC2=C(O)CCCC2=O)c1`, which Potency is on record?
Answer: inconclusive [fluorescent, partial curve]

Question: For `CCOc1ccc2noc3c2c1C(=O)c1ccccc1-3`, which Potency is on record?
Answer: inconclusive [fluorescent, partial curve]

Question: For `C=Cc1c(C)/c2[n-]/c1=C\c1[n-]c(c(CC)c1C)/C=c1\[n-]c3c(c1C)C(=O)C(C(=O)[O-])C=3c1[n-]c(c(C)c1CCC(=O)[O-])\C=2.[Cu].[Na+].[Na+]` (stereo not drawn), which Potency is on record?
Answer: active: 25.1 µM [quencher]

Question: For `O=C(NCc1ccc(F)cc1)c1nnc(Cc2cccc(F)c2)o1`, which Potency is on record?
Answer: inconclusive [quencher, partial curve]

Question: Which Potency does the source give for `CCCCn1c(CCC(=O)O)nc2cc(S(=O)(=O)N(CC)CC)ccc21` here?
Answer: inconclusive [fluorescent, partial curve]

Question: For `CCOC(=O)C1CCN(C(=O)c2ccc3c(c2)sc2nc(-c4ccc(OC)cc4)cn23)CC1`, which Potency is on record?
Answer: active: 316 µM [quencher]

Question: With `Cc1ccc(-c2cc3nccc(-c4cc([N+](=O)[O-])ccc4O)n3n2)cc1` as the compound, how does the Potency read?
Answer: active: 44.7 µM [quencher]

Question: For `COc1ccccc1OCC(=O)Nc1c(C(=O)c2ccc(C)cc2)oc2ccccc12`, which Potency is on record?
Answer: inconclusive [quencher, full curve]

Question: With `COc1ccc(-c2cc(=O)c3c(O)c(OC)c(OC)c(OC)c3o2)cc1OC` as the compound, how does the “fluorescence change” value read?
Answer: inactive: -2.23%

Question: With `O=C1COc2cc(S(=O)(=O)CCC(=O)N3CCN(c4ccccc4)CC3)c(Cl)cc2N1` as the compound, how does the Potency read?
Answer: inconclusive [quencher, full curve]

Question: For `CCCc1ccc(-c2ccc(C(=O)Oc3ccc(Br)cc3)cc2)nc1`, which Potency is on record?
Answer: active: 0.0355 µM [quencher]

Question: With `COc1ccccc1NC(=O)c1sc2ncn(Cc3cccc4ccccc34)c(=O)c2c1C` as the compound, how does the Potency read?
Answer: active: 0.891 µM [quencher]

Question: For `CN(C(=O)Cn1ncc2c1-c1ccccc1OC2)c1ccc(Br)cc1`, which Potency is on record?
Answer: inconclusive [falling, full curve, poor fit]

Question: For `COc1cc(NC(=O)N2CCC(CN3CCc4ccccc4C3)CC2)cc(OC)c1`, which Potency is on record?
Answer: inconclusive [quencher, full curve]

Question: For `CCOC(=O)C(CCCCC(NC(C)=O)(C(=O)OCC)C(=O)OCC)(NC(C)=O)C(=O)OCC`, which Potency is on record?
Answer: inconclusive [rising, single point]

Question: For `Cc1ccc(NC(=O)C(=O)NCC(c2cccnc2)N2CCc3ccccc3C2)cc1` (stereo not drawn), which “fluorescence change” value is on record?
Answer: inactive: -12.6%

Question: Which “fluorescence change” value does the source give for `CCOc1cc(C(=O)OCc2cc(=O)n3nc(C4CC4)sc3n2)cc(OCC)c1OCC` here?
Answer: inactive: -1.95%

Question: With `CO[C@@H](C(C)C)[C@@H](C)[C@@H]1OC(=O)C[C@@H]1O` as the compound, how does the Potency read?
Answer: inconclusive [falling, full curve, poor fit]

Question: Which Potency does the source give for `Cc1c(C(=O)OCC2CCCO2)[nH]c2c1C(=O)CC(c1ccco1)C2` (stereo not drawn) here?
Answer: inconclusive [quencher, partial curve]

Question: Which “fluorescence change” value does the source give for `COc1cc(/C=C2\SC(=S)N(C(C(=O)O)c3ccccc3)C2=O)ccc1O` (stereo not drawn) here?
Answer: inactive: 16.2%

Question: Which Potency does the source give for `CC(C)NC(=O)C(c1ccccc1)N1Cc2ccccc2C1=O` (stereo not drawn) here?
Answer: inconclusive [quencher, full curve]

Question: With `S=C([S-])NCCNC(=S)[S-].[Zn+2]` as the compound, how does the Potency read?
Answer: inconclusive [quencher, full curve]

Question: For `COc1cc(CN(C(=O)c2ccc(OC(C)C)cc2)C2CCS(=O)(=O)C2)cc(OC)c1OC` (stereo not drawn), which Potency is on record?
Answer: active: 1260 µM [quencher]

Question: With `Cc1ccccc1OCc1ccc(-c2nc(C#N)c(N3CCN(c4ccccc4)CC3)o2)o1` as the compound, how does the Potency read?
Answer: active: 3.98 µM [quencher]

Question: With `CC(=O)c1ccc(OCC(C)C)c(Cc2c(O)nc(N)[nH]c2=O)c1` as the compound, how does the Potency read?
Answer: inconclusive [falling, full curve, poor fit]

Question: Which “fluorescence change” value does the source give for `Cc1ccc2nsnc2c1NC(=S)NC(=O)c1ccco1` here?
Answer: inactive: 0.575%

Question: With `CN(C)c1cc2c(cc1NC(=O)c1ccc(F)cc1)n(C)c(=O)n2C` as the compound, how does the Potency read?
Answer: inconclusive [falling, partial curve, poor fit]

Question: For `O=c1[nH]nc(CNc2ccc(O)cc2)c2ccccc12`, which Potency is on record?
Answer: active: 44.7 µM [fluorescent]

Question: Which “fluorescence change” value does the source give for `COc1ccc(/C=N/Nc2ccc([N+](=O)[O-])cc2S(=O)(=O)N2CCN(C)CC2)cc1` here?
Answer: inactive: -8.34%

Question: Which “fluorescence change” value does the source give for `Cc1ccc(CNc2ccc(O)cc2)cc1` here?
Answer: inactive: 23%

Question: Which Potency does the source give for `Cc1ccc(Nc2ncnc3c2nc2n3CCCC2)c(Br)c1` here?
Answer: active: 20 µM [quencher]

Question: With `CCOc1ccc(N=Nc2ccc(N)cc2N)cc1` as the compound, how does the “fluorescence change” value read?
Answer: inactive: -3.65%

Question: For `CC(CNC(=O)CCCn1c(=O)c2cccn2c2ccccc21)c1ccccc1` (stereo not drawn), which Potency is on record?
Answer: inconclusive [quencher, full curve]

Question: With `CCCCCN1C(C(=O)c2ccccc2)=C(NC(C)=O)c2ccccc2S1(=O)=O` as the compound, how does the Potency read?
Answer: inconclusive [falling, full curve, poor fit]

Question: Which “fluorescence change” value does the source give for `CC(=O)Nc1ccc(NC(=O)CCC(=O)c2ccc(C)cc2)cc1` here?
Answer: inactive: -4.99%

Question: For `Cc1ccc(-n2c(=O)c3c4c(sc3n(CC(=O)Nc3ccccc3C)c2=O)CCCCC4)cc1C`, which Potency is on record?
Answer: inconclusive [falling, full curve, poor fit]

Question: For `Cc1ccc(C=C2C(=O)c3ccccc3C2=O)s1`, which Potency is on record?
Answer: active: 44.7 µM [fluorescent]

Question: Which Potency does the source give for `CC1Cc2cc(S(=O)(=O)NCc3ccc(N(C)C)cc3)ccc2N1C(=O)C1CCC1` (stereo not drawn) here?
Answer: active: 22.4 µM [quencher]
